Measured values from patent US20070066800A1, “Apo2l(trail) receptor binding peptides and uses thereof” (priority 2003, published 2007).
Like-named read-outs stand apart in the source and are kept apart here. Not every detail of the peptide structures is certain; ends, links or a residue may be inferred. Bridge positions count the residues as written; N and C are the ends. Peptide text beside a SMILES is read from it.

Experiments:
[1] = target: T1, Hu DR5 ECD (SEQ ID NO: 105) (Homo sapiens, UniProt O14763, A67V/E190F/V191A); assay: Phage competition Ic50 ELISA (phagemid binding assay), competitor DR5 ECD
T1 construct: Human DR5-ECD long form polypeptide
T1 sequence (O14763 with tags, fused parts or gaps A67V/E190F/V191A): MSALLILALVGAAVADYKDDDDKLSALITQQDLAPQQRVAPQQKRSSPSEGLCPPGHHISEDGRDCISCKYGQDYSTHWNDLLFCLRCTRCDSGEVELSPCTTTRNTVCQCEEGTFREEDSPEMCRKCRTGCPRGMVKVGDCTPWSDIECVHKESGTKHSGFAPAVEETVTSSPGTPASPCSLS
Description: The Apo-2L receptor binding peptides disclosed herein were identified from the bacteriophage peptide library constructs shown in Tables I and II using the following phagemid binding assay.
(§1) 1. Coat microtiter plate wells with 80 ul of 1 ug/ml Apo-2L receptor DR5 ECD (SEQ ID NO: 105) (in 50 mM sodium carbonate pH 9.6) at 4° C. overnight.
2. Remove coat and block with 200 ul PBS/0.1% BSA. Incubate 1 hour at room temperature.
(§2) 3. Prepare competing receptor solutions (100 ul/sample).
Dispense SOul binding buffer to row H through B in a new non-sticky 96-well plate.
Dispense 75 ul competing receptor solution to row A.
Make 3-fold serial dilutions by transferring 25 ul solution along columns except for row H (use fresh tip set for each transfer).
4. Prepare appropriate subsaturating phage dilution (predetermined from phage dilution series).
Transfer 50 ul of phage diluent to each microtiter well of the non-sticky plate. Start at row H then G,F,E,D,C,B,A respectively.
Incubate at R.T. for 2 hours.
5. Shake block off plate which has been coated with DR5 ECD (SEQ ID NO: 105) and rinse 10 times with PBS+0.05% tween 20.
(§3) 6. Transfer 80 ul the mixture of competing receptor and phage from the non-sticky plate to DR5 ECD coated plate and incubate 20 minutes at room temperature.
7. Make a 1:5000 dilution of HRP conjugate anti-M13 monoclonal Ab (Amersham Pharmacia Biotech) into binding buffer.
Rinse plate 10 times with PBS/tween20 (be thorough here to remove vast excess of non displaying phage).
Add 80 ul of Ab diluent to row H through A.
8. Mix TMB peroxidase substrate and peroxidase solution B at equal volume.
Rinse plate 10 times with PBS/tween20.
Add 80 ul of substrate to row H through A.
Incubate as required to develop and stop with 80 ul 2.5M H2SO4.
A number of bacteriophage clones expressing peptides of interest were generated using the above methods and then purified using limiting dilution. In order to further characterize specific clones of interest (e.g. to determine Ic 50 values), phage clones were grown and then purified using a polyethylene glycol based method as described in Sidhu et al., Methods Enzymol. 328, 333-363 (2000). Alternative methods for generating and purifying bacteriophages are also known in the art. See, e.g. Current Protocols In Molecular Biology, Volume 1, Units 1, 5 and 6, Frederick M. Ausubel et al. eds., 1995.
Phage clones identified using the above methods were grown and then purified using the following polyethylene glycol based method. Briefly, a bacterial culture infected with a phage clone of interest is grown under conditions favorable to phage growth and then centrifuged for 10 min at 2° C. and 16,000 g. The supernatant is then transferred to a fresh centrifuge tube and a 1/5 volume of PEG-NaCl (PEG 8000 (200 g/L), NaCl (146 g/L), autoclaved) is added. The mixture is then incubated for 5 minutes at room temperature. The mixture is then centrifuged as above and the supernatant decanted. The supernatant is then respun briefly and the remaining supernatant removed. The phage pellet is then resuspended in 1/20 volume of PBS (or other analogous buffer). Insoluble matter is then pelleted by centrifugation. The supernatant containing the purified phage is saved and used in assays such as Ic 50 and Ec 50 assays that are described in the following examples.
(§4) In the Tables provided herein, “Ic 50” refers to the measure of the concentration of peptide needed to inhibit 50% of Apo-2L (e.g. amino acids 114 to 281 of SEQ ID NO: 1) binding to an Apo-2L receptor molecule (e.g. DR4-IgG (SEQ ID NO: 108) or DR5 ECD (SEQ ID NO: 105) etc.). The peptides are classified such that class 1-class 4 represent a, b, c, and d respectively.

[2] = target: T2, Hu DR5 IgG (SEQ ID NO: 109) (Homo sapiens, UniProt O14763); assay: Ic50 cross-reactivity ELISA, Hu DR5 IgG; format: binding; conditions: Table IV cross-reactivity; phage clones
T2 construct: Human DR5 IgG fusion polypeptide
T2 sequence (O14763 with tags, fused parts or gaps): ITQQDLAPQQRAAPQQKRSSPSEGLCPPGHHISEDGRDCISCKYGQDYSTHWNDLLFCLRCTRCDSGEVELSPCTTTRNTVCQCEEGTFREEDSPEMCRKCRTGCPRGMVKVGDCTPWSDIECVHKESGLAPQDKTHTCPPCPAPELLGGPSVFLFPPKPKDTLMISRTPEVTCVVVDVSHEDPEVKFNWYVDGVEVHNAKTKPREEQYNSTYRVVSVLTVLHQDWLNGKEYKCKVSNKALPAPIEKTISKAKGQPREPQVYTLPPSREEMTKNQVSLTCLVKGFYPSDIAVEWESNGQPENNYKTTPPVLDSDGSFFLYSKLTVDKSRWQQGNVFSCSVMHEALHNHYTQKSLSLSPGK
Description: as §1, §2, §3, §4
Table VIII identifies the sequence identification numbers (SEQ ID NOs.) for the various peptides disclosed herein.

[3] = Positive clones, phage competition, competitor DR5 ECD (Comp/DR5 EcD), read-out: IC50
[4] = Table IV cross-reactivity, phage clones, read-out: Hu DR5 ECD (SEQ ID NO: 105) Ic50

Compound	IC50 [1, 3] [nM]	IC50 [1, 4] [nM]	IC50 [2] [nM]
CSCC[C@@H]1NC(=O)[C@H](C)NC(=O)[C@H](C(C)C)NC(=O)[C@@H](N)CSSC[C@@H](C(=O)N[C@@H](CCC(=O)O)C(=O)N[C@@H](CCCCN)C(=O)N[C@@H](CC(C)C)C(=O)N[C@@H](CCCNC(=N)N)C(=O)O)NC(=O)[C@H]([C@@H](C)O)NC(=O)[C@H]([C@@H](C)O)NC1=O [LB856]	39.2	39.2	20
CC[C@H](C)[C@@H]1NC(=O)[C@H](C(C)C)NC(=O)[C@H](CCC(N)=O)NC(=O)[C@@H](NC(=O)[C@@H](NC(=O)[C@H](CC(=O)O)NC(=O)[C@H](CCC(=O)O)NC(=O)[C@H](C)NC(=O)[C@@H]2CCCN2C(=O)[C@H](CCC(=O)O)NC(=O)[C@@H](N)Cc2ccc(O)cc2)[C@@H](C)O)CSSC[C@@H](C(=O)N[C@@H](CCCNC(=N)N)C(=O)N[C@@H](CCC(N)=O)C(=O)N[C@@H](CCCCN)C(=O)N[C@H](C(=O)N[C@H](C(=O)N[C@@H](CCC(N)=O)C(=O)O)C(C)C)[C@@H](C)O)NC(=O)[C@H]([C@@H](C)O)NC(=O)[C@H](CCSC)NC1=O [LB875]	5.9	5.9	5
CC(C)C[C@H](NC(=O)[C@H](CCCCN)NC(=O)[C@H](CCC(=O)O)NC(=O)[C@@H]1CSSC[C@H](NC(=O)[C@@H](NC(=O)[C@H](CCC(=O)O)NC(=O)CNC(=O)[C@H](CCCNC(=N)N)NC(=O)[C@H](Cc2ccccc2)NC(=O)[C@@H](N)Cc2c[nH]cn2)C(C)C)C(=O)N[C@@H](CC(C)C)C(=O)N[C@@H]([C@@H](C)O)C(=O)N[C@@H](CO)C(=O)N1)C(=O)N[C@@H](CCCNC(=N)N)C(=O)O [Peptide 871-43-S3] (H-HFRGEVCLTSCEKLR-OH; disulfide 7-11 (inferred); N-terminus and C-terminus assumed)	14.9		
CC(C)C[C@H](NC(=O)[C@H](CCCNC(=N)N)NC(=O)[C@H](CO)NC(=O)[C@@H]1CSSC[C@H](NC(=O)[C@@H](NC(=O)[C@H](CCCNC(=N)N)NC(=O)CN)C(C)C)C(=O)N[C@@H](CC(C)C)C(=O)N[C@@H]([C@@H](C)O)C(=O)N[C@@H](CC(C)C)C(=O)N1)C(=O)N[C@H](C(=O)O)[C@@H](C)O [Peptide 929-5]	3		
CC(C)C[C@H](NC(=O)[C@H](CC(C)C)NC(=O)[C@H](CCCNC(=N)N)NC(=O)[C@H](CO)NC(=O)[C@@H]1CSSC[C@H](NC(=O)[C@@H](NC(=O)[C@H](CCCNC(=N)N)NC(=O)CN)C(C)C)C(=O)N[C@@H](CC(C)C)C(=O)N[C@@H]([C@@H](C)O)C(=O)N[C@@H](CC(C)C)C(=O)N1)C(=O)O [Peptide 929-10] (H-GRVCLTLCSRLL-OH; disulfide 4-8 (inferred); N-terminus and C-terminus assumed)	940		
CC(C)C[C@H](NC(=O)[C@H](C)NC(=O)[C@H](CO)NC(=O)[C@@H]1CSSC[C@H](NC(=O)[C@@H](NC(=O)[C@H](CCC(=O)O)NC(=O)CN)C(C)C)C(=O)N[C@@H](CC(C)C)C(=O)N[C@@H]([C@@H](C)O)C(=O)N[C@@H](CO)C(=O)N1)C(=O)N[C@@H](CCCNC(=N)N)C(=O)O [Peptide R10A] (H-GEVCLTSCSALR-OH; disulfide 4-8 (inferred); N-terminus and C-terminus assumed)	9.8		
CC(C)C[C@H](NC(=O)[C@H](CCCNC(=N)N)NC(=O)[C@H](C)NC(=O)[C@@H]1CSSC[C@H](NC(=O)[C@@H](NC(=O)[C@H](CCC(=O)O)NC(=O)CN)C(C)C)C(=O)N[C@@H](CC(C)C)C(=O)N[C@@H]([C@@H](C)O)C(=O)N[C@@H](CO)C(=O)N1)C(=O)N[C@@H](CCCNC(=N)N)C(=O)O [Peptide S9A] (H-GEVCLTSCARLR-OH; disulfide 4-8 (inferred); N-terminus and C-terminus assumed)	12.7		
CC(C)C[C@H](NC(=O)[C@H](CCCNC(=N)N)NC(=O)[C@H](CO)NC(=O)[C@@H]1CSSC[C@H](NC(=O)[C@H](C)NC(=O)[C@H](CCC(=O)O)NC(=O)CN)C(=O)N[C@@H](CC(C)C)C(=O)N[C@@H]([C@@H](C)O)C(=O)N[C@@H](CO)C(=O)N1)C(=O)N[C@@H](CCCNC(=N)N)C(=O)O [Peptide V3A] (H-GEACLTSCSRLR-OH; disulfide 4-8 (inferred); N-terminus and C-terminus assumed)	9.8		
